Reference: the supplement of paper PMC7826260
Some of the results follow. The data describe in vitro nicking of single-stranded DNA by Rep domains (3 µM enzyme, 1 h, 37 °C); shown is the middle of each 90-letter strand. A value is the log2 ratio of uncut reads to the pool without enzyme; the lower, the more was cut; hits are not called. Because reads are shares of a total, they shift together; where an enzyme cuts many sequences, the uncut ones exceed 0.

tested on: T1, Rep nickase domain of tomato golden mosaic virus; experiment: uncleaved DNA left, log2 of reads against the no-enzyme library (log2 ratio); higher = less cleavage (more negative = more Rep cleavage of the k-mer); sequences stand for … in CTCGTCCG…ACCGGAGA
T1 sequence (protein, residues 1-124, tag omitted): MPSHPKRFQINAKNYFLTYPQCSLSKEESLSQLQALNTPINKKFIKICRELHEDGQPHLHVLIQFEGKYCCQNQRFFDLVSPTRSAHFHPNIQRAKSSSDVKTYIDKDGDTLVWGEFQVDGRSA
Protocol: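 A pool of 90-nt single-stranded DNAs with seven random bases just before the constant AC of the nick site (name = the seven bases) was cut by 3 µM recombinant His6-SUMO-tagged Rep nickase domain (300 nM DNA, 50 mM HEPES pH 8.0, 50 mM NaCl, 1 mM MnCl2, 1 h, 37 °C, three replicates). Uncut DNA was amplified and sequenced.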

| Sequence | uncleaved DNA left (log2) |
| --- | --- |
| TATATTA | -0.0417 |
| ATGCAAG | 0.112 |
| GAAACCT | 0.025 |
| TCTGCAC | -0.144 |
| ACGACTC | 0.0238 |
| TTTAGCT | -0.0832 |
| ATGGTAC | 0.0197 |
| TAAGTGG | 0.0297 |
| GTGCAGG | 0.108 |
| ATTATTT | 0.0498 |
| CTAGGGA | 0.0456 |
| GTAAGTT | 0.00462 |
| ATTTGGC | -0.12 |
| ATCATTG | -0.0848 |
| GAACTTG | 0.0184 |
| CCGAATG | 0.0296 |
| CGTGAAC | 0.0309 |
| TTGCCGT | -0.275 |
| GTATGCT | 0.122 |
| CCAATAT | -0.0748 |

| Sequence | uncleaved DNA left (log2) |
| --- | --- |
| TAACATC | -0.272 |
| CGGAGAA | -0.204 |
| GAGCCGT | 0.0346 |
| AGAACCT | -0.0367 |
| GGGCGCG | -0.0403 |
| AGTACTT | -0.0433 |
| TTTTAAC | 0.0817 |
| TGTTAGT | -0.0968 |
| AGCATTC | -0.0619 |
| AGCTAAT | -0.117 |
| CTACTGC | -0.164 |
| CCCGGTT | -0.12 |
| CAAGGTC | -0.0685 |
| ATGAGTT | 0.0937 |
| TATGACT | -0.127 |
| GGGACGT | 0.0856 |
| TGGACCG | 0.185 |
| GTCGATA | 0.079 |
| ACAAATC | 0.2 |
| AGTAACC | 0.123 |
